Data: the supplement of paper PMC11876631
Residue numbers refer to the chain shown, from its start. Numbers in names are those of the source. ± gives the standard deviation of the averaged measurements. Laboratory Escherichia coli strains with one amino-acid change in an essential protein, pooled on minimal glucose agar with carbenicillin or gentamicin at twice the control MIC (plus kanamycin and chloramphenicol for the plasmids), 48 h. Fold change of barcode share against drug-free plates; higher = less susceptible. Active = above 20 in both replicates (the paper's putatively resistant). '<' = one read or none on drug, '>' = one read or none on a drug-free plate. Shares are relative, so most strains fall below 1 when a few take over. Listed are strains with at least 15 reads on both drug-free plates, and hits; most hits rest on fewer reference reads. Replicate rank correlation about 0.5. Edits are read from barcodes.

B1: hemC L66P (protein)
chain: MLDNVLRIATRQSPLALWQAHYVKDKLMASHPGLVVELVPMVTRGDVILDTPLAKVGGKGLFVKEPEVALLENRADIAVHSMKDVPVEFPQGLGLVTICEREDPRDAFVSNNYDSLDALPAGSIVGTSSLRRQCQLAERRPDLIIRSLRGNVGTRLSKLDNGEYDAIILAVAGLKRLGLESRIRAALPPEISLPAVGQGAVGIECRLDDSRTRELLAALNHHETALRVTAERAMNTRLEGGCQVPIGSYAELIDGEIWLRALVGAPDGSQIIRGERRGAPQDAEQMGISLAEELLNNGAREILAEVYNGDAPA
B2: hemC I168W (protein)
chain: B1 chain with P66L, I168W
B3: hemC I77A (protein)
chain: B1 chain with P66L, I77A
B4: hemC I168A (protein)
chain: B1 chain with P66L, I168A
B5: hemC I168P (protein)
chain: B1 chain with P66L, I168P
B6: hemC I168Q (protein)
chain: B1 chain with P66L, I168Q
B7: hemB L244W (protein)
chain: MTDLIQRPRRLRKSPALRAMFEETTLSLNDLVLPIFVEEEIDDYKAVEAMPGVMRIPEKHLAREIERIANAGIRSVMTFGISHHTDETGSDAWREDGLVARMSRICKQTVPEMIVMSDTCFCEYTSHGHCGVLCEHGVDNDATLENLGKQAVVAAAAGADFIAPSAAMDGQVQAIRQALDAAGFKDTAIMSYSTKFASSFYGPFREAAGSALKGDRKSYQMNPMNRREAIRESLLDEAQGADCWMVKPAGAYLDIVRELRERTELPIGAYQVSGEYAMIKFAALAGAIDEEKVVLESLGSIKRAGADLIFSYFALDLAEKKILR

Target: Escherichia coli (laboratory strain)
Experiment: barcode share on antibiotic plates over drug-free plates; higher = less susceptible
Experimental: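 A pool of E. coli strains, each edited to carry one amino-acid change in an essential protein, was grown for 48 h on minimal glucose agar with or without antibiotic; strain barcodes were sequenced; mean of two replicates.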

[1] = antibiotic: carbenicillin, 2× MIC (3.1 µg/mL)
[2] = antibiotic: gentamicin, 2× MIC (MIC 0.45 µg/mL)

Protein | fold change of barcode share [1] | fold change of barcode share [2]
B1 | 0.475 ± 0.22 | 0.768 ± 1.1
B2 | 0.316 ± 0.053 | 0.0065 ± 0.0012
B3 | 0.292 ± 0.022 | 0.00475 ± 0.0033
B4 | 0.317 ± 0.044 | 0.0168 ± 0.018
B5 | 1.25 ± 0.21 | 0.04951 ± 0.00012
B6 | 0.362 ± 0.094 | 0.664 ± 0.93
B7 | 0.411 ± 0.053 | 11 ± 10
